In all, about 52,000 compounds went through this assay and about 4,300 (8.3%) were called active. No stated cut-off is given here; in the data, active means survival mostly below about 52% (no sharp cut-off); inactive means mostly above about 56%. Some of the results follow.
The molecules below were run on DeltatarO mutant (assay: growth inhibition of S. aureus wild type versus tarO mutant, primary screen, teichoic acid synthesis inhibitors, RN4220, OD600 (AID 463173)). Details: OD600, 18 h, active compounds read low, screened at 18.75 µg/mL (by protocol).

Question: Which survival does the source give for `CCC(Sc1nc(N)cc(=O)[nH]1)C(=O)Nc1ccccc1C#N` (stereo unspecified) here?
Answer: The survival was inactive: 79%.

Question: Which survival does the source give for `Cc1ccccc1OCC(=O)OCc1cc(=O)n2ccsc2n1` here?
Answer: Its survival is inactive: 84%.

Question: How did the survival turn out when `Cc1ccc2cc3cc(C(=O)Nc4ccc(F)cc4Cl)oc3nc2c1` was run?
Answer: Its survival is inactive: 71%.

Question: `CCN(CC)S(=O)(=O)c1ccc2c(c1)N(CC(=O)N1CCN(c3cccc(C(F)(F)F)c3)CC1)C(=O)CO2` was tested. Which survival did it give?
Answer: Its survival is inactive: 68%.

Question: For `O=C(NC1CCSC1=O)C1CCCCC1` (stereo unspecified), which survival is on record?
Answer: Its survival is inactive: 98%.

Question: With `CCOc1ccc(-c2nc(SC(C(C)=O)C(=O)N(C)C)c3c(=O)n(C)c(=O)n(C)c3n2)cc1` (stereo unspecified) as the molecule, how does the survival read?
Answer: The survival was inactive: 77%.

Question: With `CCc1ccc(NC(=O)c2ccc3c(c2)nnn3CC)cc1` as the molecule, how does the survival read?
Answer: Its survival is active: -4%.

Question: With `CCn1c(C(=O)NCc2cccc(Br)c2)cc2oc3ccccc3c21` as the molecule, how does the survival read?
Answer: The survival was inactive: 50%.

Question: `COC(=O)c1ccc(NC(=O)c2c(NCc3ccc(C)o3)sc3c2CCCC3)cc1` was tested. Which survival did it give?
Answer: The survival was inactive: 84%.

Question: Which survival does the source give for `CCc1nnc(NC(=O)c2cc(=O)c3cc(C)c(C)cc3o2)s1` here?
Answer: The survival was active: 36%.

Question: How did the survival turn out when `COc1cc(-c2noc(-c3cc4cc(F)ccc4oc3=O)n2)cc(OC)c1OC` was run?
Answer: Its survival is inactive: 99%.

Question: How did the survival turn out when `CN1C(=O)C2(c3ccccc31)N(c1ccccc1)C(=O)CS2(=O)=O` (stereo unspecified) was run?
Answer: The survival was inactive: 91%.

Question: How did the survival turn out when `CSc1ccc(CCNC(=O)C2CCN(c3nc4ccccc4nc3C(F)(F)F)CC2)cc1` was run?
Answer: The survival was inactive: 69%.

Question: For `O=C(Cn1c(=O)n(Cc2ccc3c(c2)OCO3)c(=O)c2oc3ccccc3c21)Nc1ccccc1`, which survival is on record?
Answer: Its survival is inactive: 73%.

Question: For `Cc1ccccc1CNC(=O)C1CCN(c2nnc(C)c3c(C)n(-c4ccccc4)nc23)CC1`, which survival is on record?
Answer: Its survival is inactive: 90%.

Question: For `CCc1ccc(-c2nc3ccc(Br)cc3c(C(=O)O)c2C)s1`, which survival is on record?
Answer: The survival was active: 39%.

Question: How did the survival turn out when `COc1ccc(-c2nc3scc(CCNS(=O)(=O)c4c(C)noc4C)n3n2)cc1` was run?
Answer: The survival was inactive: 101%.

Question: With `Cc1ccc(NC(=O)/C=C/c2ccccc2)c(Br)c1` as the molecule, how does the survival read?
Answer: The survival was inactive: 142%.

Question: Which survival does the source give for `CC(C(=O)O)n1ncc2ccccc2c1=O` (stereo unspecified) here?
Answer: Its survival is inactive: 88%.

Question: Which survival does the source give for `Cc1ccc(C)c(CN2C(=O)c3ccccc3S(=O)(=O)c3ccc(C(=O)Nc4ccccc4C(F)(F)F)cc32)c1` here?
Answer: The survival was inactive: 84%.

Question: With `CC(C)CC(C(=O)O)n1c(O)c(C2=c3ccccc3=NC2=O)sc1=S` (stereo unspecified) as the molecule, how does the survival read?
Answer: The survival was inactive: 87%.

Question: `Cc1cc(C)c2oc(C(=O)Nc3sc4c(c3C(=O)NCc3ccco3)CCC4)cc(=O)c2c1` was tested. Which survival did it give?
Answer: Its survival is inactive: 70%.

Question: How did the survival turn out when `CCOC(=O)c1cccc(NC(=O)c2cc(CN3CCCC3)on2)c1` was run?
Answer: Its survival is inactive: 72%.

Question: How did the survival turn out when `COc1ccc(/C=C\c2onc(C)c2S(=O)(=O)N2CCC(C(=O)Nc3ccccc3OC)CC2)cc1` was run?
Answer: The survival was inactive: 106%.

Question: `CCOC(=O)Cc1csc(NC(=O)CSc2nnc(-c3ccc(F)cc3)o2)n1` was tested. Which survival did it give?
Answer: Its survival is inactive: 126%.

Question: `COc1ccc(OC)c(NC(=O)CSc2c3c(nc4ccccc24)CCCC3)c1` was tested. Which survival did it give?
Answer: The survival was inactive: 93%.

Question: How did the survival turn out when `O=C1NC(c2ccc(Cl)cc2)Nc2ccccc21` (stereo unspecified) was run?
Answer: Its survival is inactive: 87%.

Question: With `Cc1ccc(S(=O)(=O)NCCc2nnc3ccc(SCc4ccccc4C)nn23)cc1` as the molecule, how does the survival read?
Answer: Its survival is inactive: 60%.

Question: `COc1ccc(N2CCN(C(=O)Cn3cnc4nc5c(cc4c3=O)CCCC5)CC2)cc1` was tested. Which survival did it give?
Answer: The survival was inactive: 94%.

Question: `COc1ccc(NC(=O)CCNS(=O)(=O)c2cccc3nonc23)cc1` was tested. Which survival did it give?
Answer: Its survival is active: 50%.

Question: How did the survival turn out when `CCCC(=O)N1c2ncnn2C2(CCCCC2)[C@@H]2CCCC[C@@H]21` was run?
Answer: The survival was inactive: 81%.

Question: With `Cc1ccc(OCC(=O)NCC2(N3CCN(C)CC3)CCCCC2)cc1C` as the molecule, how does the survival read?
Answer: Its survival is inactive: 80%.

Question: Which survival does the source give for `CCS(=O)(=O)N1N=C(c2ccc(C)cc2)CC1c1cc2ccc(OC)cc2nc1Cl` (stereo unspecified) here?
Answer: The survival was active: 44%.

Question: With `COc1ccccc1OC(C)C(=O)NCC1(N2CCOCC2)CCCCC1` (stereo unspecified) as the molecule, how does the survival read?
Answer: Its survival is inactive: 65%.

Question: For `Cc1ccc(Cn2cccc2C2=NC(C)(C)CO2)cc1`, which survival is on record?
Answer: Its survival is active: 45%.

Question: `CC(C)Oc1ccc(C(=O)N2CCCC2C(=O)O)cc1` (stereo unspecified) was tested. Which survival did it give?
Answer: The survival was inactive: 92%.

Question: `CC1CCN(S(=O)(=O)c2ccc3c(c2)N(CC(=O)NC(C)C)C(=O)CS3)CC1` was tested. Which survival did it give?
Answer: The survival was inactive: 90%.

Question: With `CCc1nn(CCCC(=O)NCc2ccccc2Br)c(=O)c2cc3occc3n12` as the molecule, how does the survival read?
Answer: Its survival is inactive: 92%.

Question: For `Cc1ccc(OC(=O)c2cc(-c3ccc4c(c3)OCCO4)on2)c(C)c1`, which survival is on record?
Answer: Its survival is active: -2%.

Question: Which survival does the source give for `O=C(CSc1nc2ccccc2c(=O)n1CCC(=O)NC1CCCCC1)Nc1ccccc1Cl` here?
Answer: The survival was inactive: 81%.

Question: Which survival does the source give for `COC(=O)c1sc2cccc(F)c2c1S(=O)(=O)Nc1cc(OC)cc(OC)c1` here?
Answer: The survival was active: 8%.

Question: For `Cc1nn(CCCC(=O)NCc2ccccc2)c(=O)c2nn(-c3ccccc3)c(C)c12`, which survival is on record?
Answer: The survival was inactive: 49%.

Question: How did the survival turn out when `COc1cc(CN2CCC(N)CC2)cc(OC)c1OC` was run?
Answer: The survival was inactive: 83%.

Question: `CCC(=O)N1CCc2cc(S(=O)(=O)NCCC(=O)Nc3ccc(OC)c(Cl)c3)ccc21` was tested. Which survival did it give?
Answer: Its survival is inactive: 82%.

Question: With `CCOc1ccc(CC(=O)Nc2nnc3n2CCS3)cc1` as the molecule, how does the survival read?
Answer: The survival was inactive: 71%.

Question: `CCc1nnc2c(NCc3ccccc3OC)nc3ccccc3n12` was tested. Which survival did it give?
Answer: The survival was inactive: 128%.

— PubChem BioAssay AID463173 (ICCB-Longwood Screening Facility, Harvard Medical School, 2010)
